Experimental data: publication PMC11796369, “Genetic and biochemical characterization of a radical SAM enzyme required for post-translational glutamine methylation of methyl-coenzyme M reductase” (mBio, 2025)

Target: T1, Gln420-methylated MCR from M. acetivorans (MaMCR) (Methanosarcina acetivorans, UniProt Q8THG7+Q8THH0+Q8THH1)
T1 construct: gene mcrA
Assay: X-ray crystal structure, […] Å
Details: co-purified, not added, Ni(II) form, sulfonate oxygen coordinates Ni of F430

C[C@@H](OP(=O)(O)O)[C@H](NC(=O)CCCCCCSSCCS(=O)(=O)O)C(=O)O [CoM-S-S-CoB, CoM-S-S-CoB heterodisulfide]
X-ray crystal structure, 2.0 Å: the active site contains the CoM-S-S-CoB heterodisulfide positioned near the Ni(II)-F430
